B1: LC3A_free_39_2263 (protein)
chain: SAAERAAALAALRALAAKTSPEVQAAVLRLGELLKDDPELLKRLREALEKAIAKGPEVVAVFGAEAAEAVERIEAGEPREKAAEEMLKLIENAIEIEEID
B2: LC3A_45_2005 (protein)
chain: MWKITVDLLGKPEVVARAVAAIEAVAAAFSKESGKKVTVDTAEAREALAAEQDAPEVYVTVEIYVDGDEADANALIQAIDKVHEEVGPELASIISREKVP
B3: LC3A_28_1222 (protein)
chain: AAAEAQIAAARAQADAALAAGEEALITVNIGGDTTVEDAERIMDALEAIVARAAGLPAISIVVDVDGDVSQEVIDTIAERGEAIEARFPNVTVIIALDEE
B4: LC3A_132_265 (protein)
chain: SEELLKEALEELKEIVDKIVEALEAGKDPWPYIVELEKKFEEYAKKLSLEETEELAEEVIKYFEERAKERLDPNNKEAIRVLEIIEMLFEGVLIEKELEE
B5: LC3A_free_8_2440 (protein)
chain: DRQEFTNKVSDILDELEEEIEKIGKKHGLDRSTILELQLIVGSIIMEVYLHSDEDKETIIKIAKEGLKELEEEVKSLPEEFQKEVTKAIEKAKKEIEALL
B6: LC3A_free_39_2246 (protein)
chain: MEERMKEALKRAEELAKTLSPEAAKALKELVELLKGNPEALEVVNEGVERLMKEGGDVLAFLKEAVKLVKEMQAEGKSWEEIVKELKELVEDFLNLIPLD
B7: LC3A_3_1383 (protein)
chain: MEEEIKKLLEELKKAGKSEETIKAVKEALELLKERGYEEALKTFIEEVRKLIDFPDETLLALAEDVLNFLKTNDVSEEEATKKIKEIATVYRNELEIEEL
B8: LC3A_28_804 (protein)
chain: SPVRENAERAREEALAQIAAGEPVFVEINIPKDATEEEIEYVTEVIREMAEAAKAAGAERLDVVVDVEQNERAVTAISETEDELRAAGLPVNVVIALEEP
B9: LC3A_28_980 (protein)
chain: NELEKELEKKLKEAKEAAKAKEPAVITIKVKGTTNEEEAEKIIKTLEEIAEILKDIEGSAIIIDIDKGVDPELVDRLIDKAEEIEKKYPKITVIIALDEE
B10: LC3A_28_1104 (protein)
chain: SALEKNLAAALAEVKEAAAKGEEVLVTINVGGDATEEDLELLKKTLKEMAEIAKDLPRLTVIIDLDGEGAEEKANIIGDFADELEKKYPNLTIIIALPED
B11: LC3A_3_1550 (protein)
chain: MDALRAATLAALRAAGHSPEVIAAAAALFDALAARGYDEAARVAAEEARALLHLPDELLLDFFTSVLAYVQTNDASEEELVKRIREEARTVRAEGEIEEL
B12: LC3A_28_860 (protein)
chain: SKTEESIEKARKELEEAKEKGEEVTIEITVTEDVTDEEVEKVIELIDLAAEYSKTVPGISVIIDIEGKLDPEKLQKILDRADEAIKKNPKLNVIFALDEE
B13: LC3A_141_362 (protein)
chain: AVKKKTYTYTATTYDEALKVAEEIGKEIKKFMEETGAEEVKVTVTITSYNEKTGEVTTETDTYTVTKENLDLFIEGLEIDLLSAFDKGADKIVVKVTIET
B14: LC3A_45_1981 (protein)
chain: MYLATVDVLVPRELAEEAYAAARAAADELEARYGDRVRVDRAALDESYAATKDEEDVYLRVEIYAPDKQLALDAADELVDRLEAALGDRVAAIISVEEVP
B15: LC3A_13_350 (protein)
chain: TVEIEVSTAEELREKVGAAIAAHPGETIRVTVTIENEEEADELAEAAKEVMREAAAAGNRLEITFVGPRELVNYAAVELGSFIFEHLDELDVDVHTEESP
B16: LC3A_127_206 (protein)
chain: KEKELLKKAEKLAEKAEEAVDKIPKEGEKAREEAIKLLEELAKLLKQIPSLKEALEDTEQAIKLLKETAKLSPAEREETIEQISQIISGILIEIESELLK
B17: LC3A_28_1204 (protein)
chain: SKTREAAERALEEAERLLEEGKEGVIVLKVEGEISEEETEYVIEALERIAELAAESGKISIILDIDGEVPEEHANKLIDKADELEEKYPNVNIIIALEER
B18: LC3A_28_683 (protein)
chain: SETDESIEKALKKAKEALEKGKPEVIEIKVSGDTTEEELEKILEALEEIAEIANKVPGSAIIIDIDADLPQEFRDKLIDKAEELEEKYPNVTIIFALEER
B19: LC3A_3_1746 (protein)
chain: MEETLERIRERLKELGFSEEVIEKALEVAKALLERGFEEAVKTLLEELEELKDVPDEILLAMLEDILDYVKSNDINEEEAIEKIKEEARIARNEAEIEEL
B20: LC3A_36_1341 (protein)
chain: MKVIVATAEEEDIKKAAEQANKEGADLEVVFTPETTVEEIRKALELVLELSKNISNIIIDLDAETEEELLKKLKVASEVADKIEKENGKNVIIAYDVVEP
B21: LC3A_free_46_2402 (protein)
chain: YRAEILIDALAETREKAEALAEDLEKAAREIAEKHGARVEIKVKIEELPDGSYFVEIEIVLEAETREALEAAVNELIDRFEEIAKKYNAAMIISYEISEL
B22: LC3A_28_801 (protein)
chain: SETRESAERAREEARELIARGEEVVVEIEISADATQEEIDYVNETIREMARLAKEAGIPRLYVVVDSPDNQEIITAVSETEDRMRAEGLPVSVIIAIDEP
B23: LC3A_45_1944 (protein)
chain: MAEATVSVLVPREKFEEALAVLKEAAAEIAAERGLEVEIDEAAVEAAREEAEREGEGLLEVTVKSENLQDALDAAVEIADRLEEELGPEVAVAIAIEEIP
B24: LC3A_3_1652 (protein)
chain: MEEEKKKLLEYLKKKGKSEEVLKAVEEALNALIEKGYYEAAKTFIELLKELEDLSDELLLELAEEVLELVETSDLSPEELKKKIEEIAKTIKNEGEIIEL
B25: LC3A_28_663 (protein)
chain: SAIDARIAAALAEAEAGRAAGEPVVVTLEVPGDADEADIERIIAALERIAEILAPIKGSAIIVDIDGDLDPEHEQRLIDRAEELEKRYPNVTVIIARDER
B26: LC3A_3_1594 (protein)
chain: MAALVEEQLARLRAAGASPAVLAAARRVLEALAARGYERAMETLTEELLRLRDAPTELLVAMLEELLAIVETEDLSEEEVIEEIEELARLARNEAEIEEL
B27: LC3A_3_1362 (protein)
chain: MEELIEETLAFLREQGKSEETLEAVRETLEALRERGYERAAETFVALLRELADLPDELLLAFAEDVLRAVTEEDLSEEELIAYIESEAAVARSEAEIEEL
B28: LC3A_free_8_2517 (protein)
chain: MNQEFAARATEILDELEEEVVAYLKSKGASELDILEAELLIGAAIADVISLADKSPEEQLAAIEEDLAELVEELAEHREEVAAMAEAALARIRAAQAELA
B29: LC3A_free_39_2198 (protein)
chain: SEEERQKYIEELLKLAAEEGEEAEKLARELIELMGNKLEYVKELLELVKKAKEEGVDVLELLKEALELAKKLKEEGKSVEEIAKAVLELIQDRINLIPID

Whole data set: some 2,300 sequences, median “median log2 fold change of GCK-ALFA target abundance (FLAG IP / Myc IP barcode read proportion)” near 0.095, cut for the lowest 2% near -0.47. The list shows a part of the results.

This assay addresses MAP1LC3A, Q9H492. The assay can be described thus: median log2 fold change of GCK-ALFA target abundance (FLAG IP / Myc IP barcode read proportion) (log2 ratio); each designed protein is fused to an ALFA-tag nanobody in HEK293 cells to bring the named protein to FLAG-tagged glucokinase (GCK); Myc marks an untargeted standard; higher = target protein stabilised (more abundant). As to conditions: target protein: 3xFLAG-MCP-GCK-ALFA reporter; HEK293 landing pad (RPLP). The method, boiled down:
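HEK293 landing-pad cells received a recombined binder library fused to the ALFA nanobody and were induced with 2 μg mL^−1 doxycycline, then transfected with a plasmid encoding a FLAG-tagged target and a Myc-tagged standard. Lysates were collected after 48 h for anti-FLAG and anti-Myc immunoprecipitation, and the circular RNA barcodes were reverse transcribed, amplified and sequenced. Target abundance for each binder is the median log2 ratio of FLAG to Myc barcode read proportions. Barcodes had to reach a proportion of at least 10^−7 in both replicates, each binder needed at least 3 barcodes per replicate, a pseudocount of 10^−6 was applied, and the two replicates were pooled.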
For the molecule B1, the “median log2 fold change” value stood at 0.523. The value for B2 was 0.156; that for B3 was 0.00582; that for B4 was -0.219. Regarding B5, the “median log2 fold change” value was -0.135. The value for B6 was 0.061; that for B7 was 0.127; that for B8 was -0.35. The value for B9 was -0.258; that for B10 was -0.0529; that for B11 was 0.244. For B12 the value was 0.289; for B13, -0.96; for B14, -0.0815. As to B15, the “median log2 fold change” value was found to be 0.141. As to B16, the “median log2 fold change” value was 0.148. B17: the “median log2 fold change” value is -0.12. For B18 the value was -0.521; for B19, 0.198. The value for B20 was 0.0374; that for B21 was -0.232; that for B22 was 0.207. The value for B23 was -0.198; that for B24 was 0.283. Turning to B25, the “median log2 fold change” value is 0.0762.

Regarding B26, the “median log2 fold change” value is -0.0195. The value for B27 was 0.0647; that for B28 was -0.0612. The value for B29 was 0.377.

Values taken from the supplement of paper PMC12632987.
